Test results published in PubChem BioAssay AID662 (National Center for Advancing Translational Sciences (NCATS), 2007).
The campaign covered roughly 71,000 compounds. About 1,800 (2.5%) were called active. The shares of active, inactive and inconclusive entries below differ from those in the screen. Calls come from the whole dose curve; as a rule, active = well fitted activation curve with a large enough effect in the signal ratio, with a control signal flat (not every such curve was filed as active); inconclusive = small, poorly fitted or top-dose-only effect, or effect the other way, or a change in a side signal; inactive = flat fitted curve, though single readings scatter; the % refers to the signal ratio. Potencies beside an inconclusive call are fits to weak or partial responses and may not hold up.

Assay: Cell signaling CRE-BLA (Fsk stim); for activity change, negative = inhibition: % of control where 0% means no effect
Conditions: CHO CRE-bla reporter (cAMP response element driving beta-lactamase), forskolin EC10, beta-lactamase ratio; activity change, negative = inhibition: at 38.2 µM (top of the series) unless noted
Outline: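 Cells were plated overnight at 37 °C, exposed to compound titrations plus EC10 NKH 477 for 3 h, then given CCF4 dye for 2 h at room temperature. Blue/green (460/530 nm) ratio was converted to %Activity and AC50 values calculated.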
Potency is the fitted concentration of half-maximal effect; tags give direction and shape of the fitted curve.

Structure (SMILES)	activity change, negative = inhibition	Potency
CCOc1ccccc1Nc1nnc(Cc2ccccc2Cl)c(=O)[nH]1	inconclusive: 37%	–
COc1ccc(CN2C(=O)CN(C3CCCCCC3)C(=O)C2c2ccc(OC)c(OC)c2)cc1 (stereo not drawn)	inconclusive: -22.9%	–
CCN1C(=S)SC(=O)C1=C1C=C(C)N(CCO)C(C)=C1	–	inconclusive: 0.00398 µM [rising, full curve, poor fit]
Cc1noc(C)c1Cn1nc(C(=O)O)c2ccccc2c1=O	–	inconclusive: 12.6 µM [rising, single point]
O=C(CSc1nnc(NC(=O)c2ccco2)s1)NC1CCCCC1	inactive: -8.17%	–
Cc1onc(-c2ccccc2)c1C(=O)N1CCc2ccccc21	inactive: -15.2%	–
CCOC(=O)c1ccc(NC(=O)CSc2nc(SC)ns2)cc1	inconclusive: 5.49%	–
N#Cc1c(/N=C/c2cccs2)sc2c1CCC2	inactive: -13.1%	–
O=C(c1cc(-c2ccccc2)on1)N1CCN(C(=O)c2ccco2)CC1	inactive: -10.1%	–
Cc1nc2cnc(Oc3ccccc3)nc2n(C)c1=O	inconclusive: 23.6%	–
CC(C)C[C@@H](CC(=O)N[C@@H](CCC(=O)O)CC(=O)O)NC(=O)[C@@H]1CNCC[C@H]1NC(=O)C[C@@H](NC(=O)C[C@H](Cc1c[nH]c2ccccc12)NC(=O)[C@@H]1CCCC[C@H]1N)C(C)C	inactive: -13.4%	–
COc1ccc(-c2nc3cnc(N4CCN(C)CC4)nc3n(CCc3ccccc3)c2=O)cc1	–	inconclusive: 0.631 µM [rising, full curve]
CCOC(=O)CN1C(=O)COc2ccc(Cl)cc21	inactive: 2.14%	–
COc1ccc(C)cc1NC(=O)c1ccoc1C	inconclusive: -0.196% [at 7.6 µM]	–
COc1cccc2c1[C@H](CO)N1[C@H](C#N)[C@@H]3C[C@H](C(=O)O)[C@@H]([C@@H]1C2)N3C	inconclusive: -26.9% [at 7.6 µM]	–
Cn1c(=O)[nH]c(=O)c2c1nc(CN1CCN(c3ccccc3F)CC1)n2CC(N)=O	inactive: -10%	–
CCc1ccc(-c2nn[nH]n2)cc1	inconclusive: -5.21%	–
CCOC(=O)c1cc(C(C)=O)c(=O)n(C)c1N	inconclusive: 20.2%	–
O=S(=O)(O)c1cc(O)c2c(O)c(N=Nc3cccc4ccccc34)c(S(=O)(=O)O)cc2c1	inactive: -14.2% [at 7.6 µM]	–
CCn1c(C(=O)N2CCCC(C(=O)NCCCc3ccccc3)C2)cc2sccc21 (stereo not drawn)	inactive: -10.9%	–
Cc1nnc(SCc2cnc(-c3ccccc3)o2)[nH]c1=O	inconclusive: 11.5%	–

Structure (SMILES)	activity change, negative = inhibition	Potency
COc1ccccc1CCn1c(=O)c(-c2cccc(F)c2)nc2cncnc21	–	inconclusive: 12.6 µM [rising, partial curve]
CCc1cc(-c2n[nH]c(C)c2-c2nc3ccccc3n2C)c(O)c(CN2CCN(C)CC2)c1O	inconclusive: -13.6%	–
C(/C=C\c1ccccc1)=Nc1ccc2c(c1)Cc1ccccc1-2	inactive: -19.1% [at 7.6 µM]	–
CN(C)c1ncc2nc(-c3cccs3)c(=O)n(C)c2n1	–	inconclusive: 2 µM [rising, partial curve]
CC[N+](CC)(CCNC(=O)C(=O)NCC[N+](CC)(CC)Cc1ccccc1Cl)Cc1ccccc1Cl	inactive: -14%	–
O=c1c(CCc2ccccc2)nc2cnc(N3CCOCC3)nc2n1Cc1ccc(F)cc1	inconclusive: 19.9%	–
CCOC(=O)c1c(NC(=O)CC)sc(C(C)=O)c1C	–	active: 12.6 µM
CCCn1c(C)nc2c(NC(C)CCCN(CC)CC)nc(C)nc21 (stereo not drawn)	inactive: 5.95%	–
Cc1cccc(OCc2nnc(SCc3nc4cc(C(F)(F)F)ccc4c(=O)[nH]3)o2)c1	inconclusive: 22.8%	–
CCOC(=O)c1[nH]c2ccc(OC)cc2c1NC(=O)OC	inactive: 14.2%	–
Cc1[nH]c(=O)[nH]c(=O)c1S(=O)(=O)N1CCCC(C(=O)N2CCN(c3ccccc3Cl)CC2)C1 (stereo not drawn)	inactive: -23.7%	–
CCn1c(SCC(=O)c2cc(C)n(CC3CCCO3)c2C)nc2ccccc21 (stereo not drawn)	–	inconclusive: 10 µM [rising, single point]
COC(=O)c1ccccc1NC(=O)Nc1cccs1	inconclusive: 17.7%	–
O=C(C[C@@H](C(=O)O)N1CCOCC1)c1ccccc1	inconclusive: -24.3% [at 7.6 µM]	–
N[C@](CC1c2ccccc2Oc2ccccc21)(C(=O)O)[C@@H]1C[C@@H]1C(=O)O	inactive: 15.9%	–
NC1=CC(=O)c2cccc3cccc1c23	inconclusive: -18.2%	–
Cc1ccc(S(=O)(=O)N2CCC(C(=O)N[C@@H](C)C(=O)Nc3ccc4c(c3)OCO4)CC2)cc1	inactive: 4.9%	–
CCC(=O)Nc1nc2ccccc2n1Cc1ccccc1	inconclusive: 1.84%	–
Cc1cc(NC(=O)c2cnn3cccnc23)nn1CC(=O)Nc1cccnc1	inconclusive: 6.43%	–
CCOc1ccc(-n2c(SCC(=O)Nc3ccc4c(c3)OCCO4)nc3c(c2=O)SCC3)cc1	inconclusive: 8.61%	–
Cc1sc2nc(CN3CCOCC3)nc(NS(=O)(=O)c3ccc4c(c3)OCCO4)c2c1C	–	inconclusive: 3.98 µM [rising, partial curve]

Structure (SMILES)	activity change, negative = inhibition	Potency
Cn1c(/C(C#N)=C/C2CC=CCC2)nc2ccccc21 (stereo not drawn)	inactive: -0.526%	–
CC(C)(C)C1=Nn2c(nnc2-c2ccccc2F)SC1	–	inconclusive: 7.94 µM [rising, partial curve]
O=C1COc2ccc(C(=O)COC(=O)c3ccc4ccccc4n3)cc2N1	–	inconclusive: 0.0501 µM [falling, single point]
Cc1ccc(CNc2ccc(O)cc2)cc1	inactive: -1.89%	–
Cc1cc(/C=N/n2cnnc2)c(C)n1-c1ccc(C(=O)O)cc1	inactive: -0.258%	–
CCOC(=O)N1CCN(C(=O)c2ccccc2-c2ccccc2)CC1	inconclusive: 5.43%	–
OCCN(CCO)c1ncnc2nc[nH]c12	inactive: 6.92% [at 7.6 µM]	–
COc1ccc(-n2c(SCC#N)nnc2-c2ccc(NS(=O)(=O)c3ccc(C)cc3)cc2)cc1	inconclusive: -1.4%	–
CC(NC(=O)COc1ccccc1)C1COc2ccccc2O1 (stereo not drawn)	inactive: -5.24%	–
O=C(c1noc2c1CCCC2)N1CCN(c2ccc(F)cc2)CC1	–	inconclusive: 0.00794 µM [falling, full curve, poor fit]
O=C(CCNS(=O)(=O)c1cccc2nsnc12)N1CC(=O)N(CCc2ccccc2)C(=O)C1	inconclusive: 2.46%	–
O=C(CSc1ncnc2c1oc1ccccc12)c1cccs1	inconclusive: 16.3%	–
COc1ccc(CCNC(=O)CN2CCC(n3nnc4cc(F)ccc43)CC2)cc1OC	–	inconclusive: 3.16 µM [rising, single point]
CCOC(=O)c1c(C2CC2)csc1NC(C)=O	–	inconclusive: 25.1 µM [rising, single point]
O=C(CN1C(=O)COc2ccccc21)NCCN1CCc2ccccc2C1	inconclusive: -6.89%	–
COCCn1c(=S)[nH]c2cc(C(=O)N3CCC(C(N)=O)(N4CCCCC4)CC3)ccc2c1=O	inactive: 8.05%	–
Cc1scc(C(=O)Nn2cnnc2)c1-c1ccccc1	inconclusive: -7.29%	–
Cc1cc2c(cc(C(=O)OCC(=O)NCc3cccs3)n2C(C)C)o1	–	active: 10 µM
O=C(c1cccc2cccc(O)c12)N1CCCCC1	inconclusive: 32.5%	–
O=c1c(-c2cccs2)nc2cnc(N3CCOCC3)nc2n1CCc1ccccc1	–	inconclusive: 0.398 µM [rising, full curve]
CCOC(=O)c1c(N)sn(-c2ccccc2)c1=S	–	inconclusive: 5.01 µM [rising, partial curve]

Structure (SMILES)	activity change, negative = inhibition	Potency
Cc1c(CCC(=O)O)c(=O)oc2cc(O)ccc12	inconclusive: 27.7%	–
C=CCn1c(NCCOC)nc2c1c(=O)n(C)c(=O)n2C	–	inconclusive: 12.6 µM [rising, single point]
c1ccc2c(c1)CC1(CCCC1)n1nnnc1-2	inactive: 1.9%	–
CCOC(=O)c1ccc(NC(=O)CSC2=NC(=O)C(CC)C(=O)N2)cc1 (stereo not drawn)	inconclusive: 2.8%	–
COc1ccc(Nc2ncnc3c2cnn3-c2ccccc2)cc1OC	–	inconclusive: 10 µM [rising, partial curve]
Cc1nn(-c2ccccc2)c(C)c1C(=O)OCC(=O)NC(=O)NC1CCCCC1	inconclusive: 29.1%	–
O=C(CN1CCN(Cc2ccccc2Cl)C1=O)NC1CCCCCC1	inconclusive: 24.9%	–
Cc1ccc2nc(C3CCN(C(=O)c4ccco4)CC3)[nH]c2c1	inactive: 8.68%	–
CC(C)(C)Nc1nc(Oc2ccc(=O)n(-c3ccccc3)n2)nc(N2CCOCC2)n1	–	inconclusive: 1.58 µM [rising, full curve]
Cc1ccc(CNC(=O)CS(=O)Cc2nc(-c3ccccc3C)oc2C)cc1 (stereo not drawn)	inactive: -8.88%	–
CC(=O)[C@H]1CC[C@@H]2[C@H]3CC=C4C[C@@H](O)CC[C@]4(C)[C@H]3CC[C@]12C	inactive: 2.83% [at 17.1 µM]	–
CCCc1nc(N)c(C#N)c(-c2cccnc2)c1CC	–	active: 12.6 µM
O=c1c2[nH]c3ccccc3c2ncn1Cc1cccnc1	–	inconclusive: 25.1 µM [rising, single point]
O=C(CSc1nc2ccccc2c(=O)n1CCCC(=O)N1CCCC1)NCc1ccco1	inconclusive: -18.7%	–
CCOC(=O)c1cc(-c2cccnc2)nn1-c1ccccn1	inconclusive: 5.5%	–
c1ccc(C(CN2CCOCC2)c2ccccc2)cc1	inconclusive: -15.5% [at 7.6 µM]	–
Cc1c(C(=O)Nc2ccccc2Cl)oc2ccc(S(=O)(=O)N3CCC4(CC3)OCCO4)cc12	inconclusive: 18.9%	–
CCCc1ccc(Oc2cn[nH]c2-c2ccc(O)cc2O)cc1	–	inconclusive: 5.01 µM [rising, single point]
C=C(C)CSc1nnc(-c2cccc(S(=O)(=O)N(C)C)c2)n1-c1cc(OC)ccc1OC	inconclusive: 18.5%	–
N#CCOc1nc(N2CCOCC2)nc(N2CCOCC2)n1	–	inconclusive: 5.01 µM [rising, partial curve]
